The values that follow come from PubChem BioAssay AID1508624 (National Center for Advancing Translational Sciences (NCATS), 2021).

The campaign covered roughly 48,000 compounds. About 120 (0.25%) were called active. About 4% were inconclusive and are not listed. The call rests on the fitted dose curve; in most records, active means well fitted activation curve with a large enough effect; inconclusive means small, poorly fitted or top-dose-only effect, or another doubt; inactive means no such curve, though single readings can be large or run the other way. Some of the results follow.

This assay is described as follows: Primary qHTS for Identification of Small Molecule Activators of Huntingtin-Antisense Promoter Activity. Further: nearly all actives have a fitted effect of over 55% in size. As to conditions: HEK293 HTT-AS promoter firefly luciferase reporter, 24 h; series mostly up to 57.5 µM; activity change, positive = activation: at the top concentration. The method in brief:
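Luminescence was read after Dual-Glo reagent and a 10 min room-temperature incubation. Values were normalized to vehicle (0% activity) and zero RLU (-100% activity). Reporter HEK293 cells had been exposed to compounds (up to 57.5 uM final) for 24 h.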
For `Cc1ccccc1NC(=O)c1ccc(N(Cc2ccccc2)S(C)(=O)=O)cc1`, the “activity change, positive = activation” value is inactive: -46.6%.

Regarding `COc1ccc(CNC(=O)c2cnc3ccc(C)cn3c2=O)cc1`, the “activity change, positive = activation” value is inactive: -1.27%.

Turning to `O=C(NCc1ccc2c(c1)CCN2C(=O)c1ccncc1)c1ccccc1F`, the “activity change, positive = activation” value is inactive: -16.7%.

Take `COC(=O)c1ccccc1NC(=O)CCS(=O)(=O)c1nc(-c2ccc3c(c2)OCO3)cc(C(F)(F)F)n1`: the “activity change, positive = activation” value is inactive: -56.1%.

Turning to `COc1ccccc1CNc1ncnc2c1nnn2C`, the “activity change, positive = activation” value was inactive: -1.44%.

On to `CCOCCCn1c(=N)c(S(=O)(=O)c2ccc(Cl)cc2)cc2c(=O)n3cccc(C)c3nc21`, for which the “activity change, positive = activation” value was inactive: -2.75%.

With `COC(=O)c1c(-c2cccs2)csc1NC(=O)c1ccc(C(C)C)cc1`, the “activity change, positive = activation” value was inactive: 3.44%.

As for `Cc1ccc(NC(=O)CCS(=O)(=O)c2ccc3c(c2)oc(=O)n3C)c(Br)c1`, the “activity change, positive = activation” value is inactive: -3.29%.

On to `COc1ccc(NC(=O)c2cc3c(C)nn(-c4ccccc4)c3s2)c(OC)c1`, for which the “activity change, positive = activation” value is inactive: -9.42%.

Regarding `Cc1c(Cl)cccc1Nc1nn2c(=O)c3ccc(C(=O)N(C)Cc4ccccc4)cc3nc2s1`, the “activity change, positive = activation” value was inactive: -23.3%.

For `CCOc1cc(S(=O)(=O)NCCc2c(C)[nH]c3ccc(C)cc23)ccc1Br`, the “activity change, positive = activation” value was inactive: -28.1%.

As to `Cc1cc(C)cc(-n2c(SCC(=O)NC3CCCCC3)nc3c([nH]c4ccccc43)c2=O)c1`, the “activity change, positive = activation” value is inactive: -7.35%.

Take `CC(=O)c1cccc(NS(=O)(=O)c2cccc(S(=O)(=O)c3ccc(Br)cc3)c2)c1`: the “activity change, positive = activation” value is inactive: -53.9%.

With `COc1ccc(N2CCN(C(=O)CSCc3ccc(C)cc3)CC2)cc1`, the “activity change, positive = activation” value is inactive: -6.51%.

`COc1ccc(-c2nc(CSCC(=O)N3CCN(c4ccccc4)CC3)c(C)o2)cc1`: the “activity change, positive = activation” value was inactive: -56.6%.

Consider `O=c1[nH]c(SCc2c(F)cccc2Cl)nc2c1CCCC2`, for which the “activity change, positive = activation” value is inactive: -21.4%.

On to `COCCNC(=O)c1[nH]c2cc(C)ccc2c1Sc1ccc(Cl)cc1`, for which the “activity change, positive = activation” value is inactive: 10%.

Regarding `O=C(Nc1cccc(-c2nc3ccccc3o2)c1)c1cccc2c(Cl)cccc12`, the “activity change, positive = activation” value was inactive: -14.1%.

As for `CCOC(=O)c1ccc(NC(=O)CCc2nc3cccnc3n2Cc2cccs2)cc1`, the “activity change, positive = activation” value is inactive: -20.6%.

Take `Cc1ccc(S(=O)(=O)c2cn(CC(=O)Nc3ccc(Cl)cc3)c3ccc(F)cc3c2=O)cc1C`: the “activity change, positive = activation” value is inactive: -8.2%.

Consider `C[C@@]12CCC[C@H]1[C@@H]1CC[C@H]3C[C@@H](O)CC[C@]3(C)[C@H]1CC2`, for which the “activity change, positive = activation” value was inactive: -4.87%.

As to `COc1cc(C2CC(=O)Nc3c2c(=O)n(C)c2ncnn32)cc(OC)c1OC` (configuration not stated), the “activity change, positive = activation” value is inactive: -2.98%.

As for `CCOC(=O)c1c(NC(=O)c2cc(CC)on2)sc(C(C)=O)c1C`, the “activity change, positive = activation” value was inactive: -9.78%.

Regarding `CC(=O)c1ccc(N2CCN(c3ccc4cc(S(=O)(=O)N5CCC(C)CC5)ccc4n3)CC2)cc1`, the “activity change, positive = activation” value was inactive: -18.1%.

As for `CSc1ccc(CCNC(=O)c2c(C)oc3ncn(C)c(=O)c23)cc1`, the “activity change, positive = activation” value was inactive: 1.66%.

With `COc1ccc(CCN2CCC(CNC(=O)c3cnn(-c4cccc(Cl)c4)c3C3CCN(C(=O)OC(C)(C)C)CC3)CC2)cc1`, the “activity change, positive = activation” value was inactive: -27%.

For `O=C(CN1c2ccccc2S(=O)(=O)c2ccccc21)Nc1cccc(C(F)(F)F)c1`, the “activity change, positive = activation” value was inactive: -17.4%.

As to `Cc1cccc(Cn2c(Cc3ccccc3)nc3ccccc32)c1`, the “activity change, positive = activation” value was inactive: -24.4%.

With `COc1ccc(N2CCN(C(=O)C3CCN(c4nc5ccc(C)cc5[nH]4)CC3)CC2)cc1`, the “activity change, positive = activation” value was inactive: -40.4%.

With `O=C(NCc1ccc(F)cc1)c1ccc2oc(=O)n(Cc3ccccc3)c2c1`, the “activity change, positive = activation” value is inactive: -18.2%.

As to `COc1ccccc1NC(=O)C(=O)NCC(c1cccnc1)N1CCc2ccccc2C1` (configuration not stated), the “activity change, positive = activation” value was inactive: -8.89%.

In the case of `COc1cccc(CNC(=O)Cn2c(=O)oc3cc(S(=O)(=O)N4CCCCCC4)ccc32)c1`, the “activity change, positive = activation” value was inactive: -24.3%.

Take `C[C@@H]1[C@H](C)CC[C@]2(C(=O)O)CC[C@]3(C)C(=CC[C@@H]4[C@@]5(C)CC[C@H](O)C(C)(C)[C@H]5CC[C@]43C)[C@@H]12`: the “activity change, positive = activation” value was inactive: -18.7% [at 116 µM, percent change from vehicle, -100% = no light].

For `CC(=O)Nc1nonc1-c1nnc(SCc2ccccc2)n1C`, the “activity change, positive = activation” value was inactive: -12.2%.

`COc1ccc(-n2nc(C(=O)Nc3cc(C)ccn3)c3c4ccccc4n(C)c3c2=O)cc1Cl`: the “activity change, positive = activation” value was inactive: -3.05%.

As for `CCc1ccc(NC(=O)Cn2c(=O)c3cc(Cl)ccc3n3nncc23)cc1`, the “activity change, positive = activation” value is inactive: -1.63%.

Take `CCOc1ccc(-c2cc(C(=O)NCCc3ccc(OC)c(OC)c3)[nH]n2)cc1`: the “activity change, positive = activation” value was inactive: -0.98%.

Take `CN1CC(=O)N(CC(=O)Nc2ccc(OC(F)(F)F)cc2)c2ccccc2C1=O`: the “activity change, positive = activation” value is inactive: -10.4%.

Turning to `O=c1c2oc3ccccc3c2n(Cc2cccc(F)c2)c(=O)n1Cc1ccc2c(c1)OCO2`, the “activity change, positive = activation” value is inactive: -25.6%.

For `Cc1ccccc1CNC(=O)C(=O)NCC(c1cccs1)S(=O)(=O)c1cccs1` (configuration not stated), the “activity change, positive = activation” value is inactive: -35.6%.

Take `COC(=O)c1cccc(CN2C(=O)SC(Nc3ccc(C)cc3)C2=O)c1` (configuration not stated): the “activity change, positive = activation” value was inactive: -9.43%.

Turning to `C=Cc1ccc(Cn2c(SCC(=O)N3CCN(c4ccc(F)cc4)CC3)nc3ccccc32)cc1`, the “activity change, positive = activation” value was inactive: -14.3%.

As to `Cc1ccc(CNC(=O)CN2C(=O)CC(c3ccc(C)c(C)c3)=Nc3ccccc32)cc1`, the “activity change, positive = activation” value was inactive: 12.2%.

As for `COc1ccc(-c2nc(S(=O)(=O)c3ccc(C)cc3)c(N3CCCCC3)o2)cc1`, the “activity change, positive = activation” value was inactive: -6.91%.

For the compound `CCCCOC(=O)c1ccc(Nc2ncnc3c2cnn3-c2cccc(C)c2)cc1`, the “activity change, positive = activation” value is inactive: -7.74%.

Consider `Cc1cccc(CN2CCC(CNc3ncnc4onc(-c5ccc(Cl)cc5)c34)CC2)c1`, for which the “activity change, positive = activation” value is inactive: -21.7%.

On to `COc1ccc(NC(=O)C2CCCN(S(=O)(=O)c3cccc4nonc34)C2)cc1Cl` (configuration not stated), for which the “activity change, positive = activation” value is inactive: -11.1%.
